From the RNAGym collection of RNA variant scans (doi:10.1073/pnas.2313332121) come the findings set out here.

B1: TPR 5TU (parent)
chain: GGAUCUUCUCGAUCUAACAAAAAAGACAAAUCUGCCACAAAGCUUGAGAGCAUCUUCGGAUGCAGAGGCGGCAGCCUUCGGUGGCGCGAUAGCGCCAACGUUCUCAACUAUGACACGCAAAACGCGUGCUCCGUUGAAUGGAGUUUAUCAUG

Variants at the floor of the assay are shown more often than the library holds them. Some results are limits rather than exact numbers.

The variants in the series derive from B1. In words: polymerase ribozyme fitness, log enrichment relative to wild type (log ratio); higher = more active; in vitro selection for triplet polymerase activity. A digest of the protocol:
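Genotype fitness is the logarithm of its enrichment divided by wild-type enrichment, using inverse-variance-weighted averages of replicates. That logarithm is base 2. Enrichment was measured by Illumina sequencing of input and output libraries from one triplicate in vitro selection round, with frozen incubation at −7 °C, on PCR-built, transcribed mutant libraries of each subunit of a heterodimeric triplet polymerase ribozyme, retaining genotypes with ≥10 input reads and ≥1 read per output.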
Regarding C54U C96U, the “polymerase ribozyme fitness (log ratio)” value was -0.41. Next, C54U C96G: -0.994; C54U G65U G81A C93U A97U: no more than -4.2.

Turning to C54A G83U, the “polymerase ribozyme fitness (log ratio)” value was -1.19. As to C54U U61G G71A A91G, the “polymerase ribozyme fitness (log ratio)” value is no more than -4.2. Next, C54G C108G C114A G143U: no more than -4.2; C54G C75G C87A: no more than -4.2; U55A C57U C85G G94C C99G C149G: no more than -4.2.

On to C54U G59C U77C C95A A113U, for which the “polymerase ribozyme fitness (log ratio)” value was no more than -4.2. Next, C54A G86U A106U A142C U148C: no more than -4.2; U55A A98U A110U C131G: no more than -4.2.

On to C54U G67C C69U C87U U101G, for which the “polymerase ribozyme fitness (log ratio)” value was no more than -4.2. U55A A73C C87G: the “polymerase ribozyme fitness (log ratio)” value is no more than -4.2. Next, C54G C69G G83A C87G A110U U111C: no more than -4.2. Next, C54U C93A A110G A137G G140C: -4.1; C54G C72A A115U: no more than -4.2. Then U55A C87U U90C A122U, with no more than -4.2; and C54G G84A, with -1.74. Consider C54U C76U G94C G100U A119G G128U, for which the “polymerase ribozyme fitness (log ratio)” value is no more than -4.2. Next, C54U G124C: -0.768; C54G G62U A73G G86C: no more than -4.2. Then C54U G86C, with -3.47; and C54U G86U, with -1.78. Turning to C54G C114U G143C, the “polymerase ribozyme fitness (log ratio)” value is -4.16.

For C54A U56A C93A A98U A138C U151G, the “polymerase ribozyme fitness (log ratio)” value was no more than -4.2. As for U55A C93U, the “polymerase ribozyme fitness (log ratio)” value is -1.68. With U55A C93A, the “polymerase ribozyme fitness (log ratio)” value was -2.96. With U55A A122G, the “polymerase ribozyme fitness (log ratio)” value is -0.237. For C54G G59C G83U C87U G94A U102C U148G, the “polymerase ribozyme fitness (log ratio)” value is no more than -4.2. In the case of U55A C76A C87G C93U C95G U101G G128A, the “polymerase ribozyme fitness (log ratio)” value was no more than -4.2. Then C54G C87U, with -3.59; and C54G U55A G58A C99G C132A, with no more than -4.2. Take C54A G70A: the “polymerase ribozyme fitness (log ratio)” value was -3.79. For the variant C54U C96U U127C, the “polymerase ribozyme fitness (log ratio)” value is no more than -4.2. Regarding C54G A89U A147C, the “polymerase ribozyme fitness (log ratio)” value is -2.1.

In the case of C54A G59A C63U G88U A107U U145A, the “polymerase ribozyme fitness (log ratio)” value was no more than -4.2.

In the case of C54G G83A U102C, the “polymerase ribozyme fitness (log ratio)” value was no more than -4.2.

Take C54U G88A A89U C95A C99U U146G U151A: the “polymerase ribozyme fitness (log ratio)” value is no more than -4.2. In the case of C54A G92A G126U, the “polymerase ribozyme fitness (log ratio)” value is -3.3. Next, C54G C85U C99G: -3.45. Consider C54U A64G C116G U139G, for which the “polymerase ribozyme fitness (log ratio)” value is no more than -4.2. Then U55A A60U U101G, with -0.433; and C54U G67C G94C U111A C129G, with no more than -4.2; and C54U U78G C96G A113U, with no more than -4.2. Take C54A G59A C87U: the “polymerase ribozyme fitness (log ratio)” value is -1.95. Next, C54G U90C G94A C96G G128C G141U: no more than -4.2. In the case of C54U U61A G68A A120C G126C G140U, the “polymerase ribozyme fitness (log ratio)” value was no more than -4.2. Then C54U G84A C105A, with -0.565; and U55A C72A A119U, with no more than -4.2. In the case of C54G C69U G74C C85U, the “polymerase ribozyme fitness (log ratio)” value was no more than -4.2.

Turning to C54U U56C A73U, the “polymerase ribozyme fitness (log ratio)” value was -1.06. Then C54G G83A C96U A110G C132U A142C, with no more than -4.2; and U55A C76G, with no more than -4.2. Then C54G C108U, with -4.19; and C54U C69U C85A A110C G143A, with no more than -4.2; and C54U U78A, with no more than -4.2. Then C54U C149A U151G, with no more than -4.2; and C54U G92U A147U, with 0.0812. On to C54U U144A, for which the “polymerase ribozyme fitness (log ratio)” value is -0.258.

As to C54U C95A A110C, the “polymerase ribozyme fitness (log ratio)” value is no more than -4.2.

Take C54U U77A C87A A97G A107G G140U: the “polymerase ribozyme fitness (log ratio)” value is no more than -4.2.

For C54U U148C, the “polymerase ribozyme fitness (log ratio)” value is -1.84. Then C54U G81A G86U C105A A147U, with -4.16; and C54U G86C A91U A137U, with no more than -4.2. Next, U55A G59A G100A G141C: no more than -4.2; C54U C76U C87A A91C A98U C108G A115G U130A: no more than -4.2. Then U55A C149U, with -1.55; and C54A G94U C123G C125A U134C, with -3.75; and C54U G100A U101A, with no more than -4.2. As for C54U U56A G133C, the “polymerase ribozyme fitness (log ratio)” value is -1.7. U55A A91G: the “polymerase ribozyme fitness (log ratio)” value was -2.86.

Consider C54G G88C, for which the “polymerase ribozyme fitness (log ratio)” value was no more than -4.2. Next, U55A A107G A138C C149U: no more than -4.2; U55A A73U C75U C93U G100A U139A U144G: no more than -4.2; U55A C96A G136C: -3.78.

Consider U55A G62A A73G, for which the “polymerase ribozyme fitness (log ratio)” value was no more than -4.2. Next, C54U C96A A97G: -1.12. On to U55A A113U A121G U139G G141U U144A, for which the “polymerase ribozyme fitness (log ratio)” value was no more than -4.2. Next, C54U C57A C87G G94C U130A: no more than -4.2. C54U A73U C87G: the “polymerase ribozyme fitness (log ratio)” value was no more than -4.2. Next, C54U G70A G92A: no more than -4.2; C54G C95U U127G: no more than -4.2; C54G U55A G70U G81C C87U G94C C96A C105A A120C: no more than -4.2.
